Over roughly 33,000 sequences, “E-score (-0.5 to 0.5)” has its median near -0.043; the highest 2% begin near 0.37. The list shows a part of the results.

For this experiment, the target named is T1, Upc2 (UniProt Q12151).
T1 sequence: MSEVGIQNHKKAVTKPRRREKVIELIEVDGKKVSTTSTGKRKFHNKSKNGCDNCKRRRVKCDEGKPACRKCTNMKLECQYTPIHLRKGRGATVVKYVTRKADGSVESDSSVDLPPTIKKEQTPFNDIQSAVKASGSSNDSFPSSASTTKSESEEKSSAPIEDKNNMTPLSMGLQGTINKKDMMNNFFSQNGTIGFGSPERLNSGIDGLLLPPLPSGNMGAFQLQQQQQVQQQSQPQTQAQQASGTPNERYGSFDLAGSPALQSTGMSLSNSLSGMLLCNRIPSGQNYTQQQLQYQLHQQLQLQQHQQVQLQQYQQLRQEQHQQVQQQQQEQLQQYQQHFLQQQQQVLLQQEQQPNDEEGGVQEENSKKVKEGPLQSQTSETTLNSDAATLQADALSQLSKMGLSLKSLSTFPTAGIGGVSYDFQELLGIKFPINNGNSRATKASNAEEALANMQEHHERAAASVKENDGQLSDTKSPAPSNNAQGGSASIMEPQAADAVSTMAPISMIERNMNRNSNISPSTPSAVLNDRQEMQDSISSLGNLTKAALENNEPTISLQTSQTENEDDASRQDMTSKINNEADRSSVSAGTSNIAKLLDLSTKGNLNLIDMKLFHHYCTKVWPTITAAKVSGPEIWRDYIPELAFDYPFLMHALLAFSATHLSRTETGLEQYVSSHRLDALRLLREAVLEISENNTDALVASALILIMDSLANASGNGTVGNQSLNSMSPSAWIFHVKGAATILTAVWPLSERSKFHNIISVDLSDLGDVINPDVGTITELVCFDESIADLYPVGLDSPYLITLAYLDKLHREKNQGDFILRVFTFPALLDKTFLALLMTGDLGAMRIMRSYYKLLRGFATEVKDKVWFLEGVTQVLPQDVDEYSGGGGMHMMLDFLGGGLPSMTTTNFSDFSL
Nature of the experiment: PBM E-score (8-mer binding enrichment) (E-score (-0.5 to 0.5)); higher = stronger / more preferred TF binding; most listed sequences are background and not binding sites. The note with it: protein concentration: 200 nM; construct: GST-full length. In short, it runs like this: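 Yeast transcription factors, full-length or as DNA-binding domains, were expressed with a GST tag using PURExpress in vitro transcription/translation. At about 100-200 nM they were applied to universal all-10-mer Agilent arrays, double-stranded by primer extension on fresh or once-stripped slides. Fluorescent anti-GST detected bound protein, and masliner normalised the scans. E-scores for ungapped eight-base words, pooled with reverse complements, came from the Universal PBM Analysis Suite.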
Consider TTCATAAA, for which the “PBM E-score” value was -0.113.

On to GGCGACGA, for which the “PBM E-score” value was -0.118.

On to AAATGCGA, for which the “PBM E-score” value came out at 0.187.

As for AACAGTGC, the “PBM E-score” value was -0.0685.

For the sequence GAGACAAA, the “PBM E-score” value was -0.0497.

As for CTTAATAA, the “PBM E-score” value worked out at 0.0701.

With CACGAGTG, the “PBM E-score” value was found to be 0.0785.

As to GAAATAAC, the “PBM E-score” value was -0.0655.

As to GGCGGTGA, the “PBM E-score” value was -0.0751.

Regarding ACCTTTAC, the “PBM E-score” value came out at 0.16.

For the sequence CGCGCCCA, the “PBM E-score” value was found to be 0.00884.

Turning to TAACTTAA, the “PBM E-score” value was -0.0492.

Take TATCAACA: the “PBM E-score” value is -0.00369.

For ACGGCTAA, the “PBM E-score” value amounted to 0.118.

On to GCAGTCGA, for which the “PBM E-score” value is -0.137.

Turning to AGAGTGTC, the “PBM E-score” value was determined as 0.0268.

For the sequence ATATGCAT, the “PBM E-score” value is -0.0168.

Turning to CAGGTCCC, the “PBM E-score” value is -0.276.

For the sequence AGCACATG, the “PBM E-score” value is -0.0669.

Turning to GTATAGTA, the “PBM E-score” value stood at 0.341.

As for CTCAAAGA, the “PBM E-score” value is -0.149.

In the case of ACAGAAAG, the “PBM E-score” value is -0.0455.

On to AACAACAG, for which the “PBM E-score” value was -0.11.

On to CAAGGACA, for which the “PBM E-score” value is -0.209.

ATATCTTG: the “PBM E-score” value is -0.192.

GGGCACTA: the “PBM E-score” value is -0.0406.

In the case of ACTATAAA, the “PBM E-score” value was -0.0455.

With AATCGACG, the “PBM E-score” value was 0.211.

As to AATCTCGT, the “PBM E-score” value is 0.314.

Take CCTCACAA: the “PBM E-score” value is -0.225.

Regarding TAAAAATA, the “PBM E-score” value came out at 0.0284.

Take ATGAAGTA: the “PBM E-score” value is -0.0559.

As to AGTTCAGC, the “PBM E-score” value was -0.205.

Regarding CGATTGGA, the “PBM E-score” value was -0.0149.

GTCGTCAA: the “PBM E-score” value is -0.0271.

Take GAATATAC: the “PBM E-score” value was found to be 0.236.

Turning to GTGGTAAC, the “PBM E-score” value came to 0.0791.

Turning to AGCGCTTG, the “PBM E-score” value was -0.188.

Turning to CGTCAAAA, the “PBM E-score” value is -0.0216.

With ATATGGAA, the “PBM E-score” value was -0.00558.

For CATAGTCG, the “PBM E-score” value amounted to 0.0231.

For CTGGTAGC, the “PBM E-score” value was -0.3.

Take CGTATTGA: the “PBM E-score” value stood at 0.321.

Consider AAGAATGC, for which the “PBM E-score” value was -0.127.

For the sequence ACCCTCCG, the “PBM E-score” value is -0.0882.

As for ACCGGACG, the “PBM E-score” value is -0.0895.

ATCTAAGA: the “PBM E-score” value was -0.179.

Turning to ACGTAACA, the “PBM E-score” value is -0.0115.

In the case of GGACCGAA, the “PBM E-score” value is 0.131.

With AAGGGAAC, the “PBM E-score” value was -0.0527.

As to ACGGCCGT, the “PBM E-score” value is 0.267.

As for CTTGCGGA, the “PBM E-score” value is -0.0564.

For ATGTGTGC, the “PBM E-score” value was -0.258.

For CATAACGA, the “PBM E-score” value is 0.141.

Consider TAGTGCAA, for which the “PBM E-score” value is -0.0447.

As for CGCAATAA, the “PBM E-score” value came out at 0.0937.

Turning to ACATATAA, the “PBM E-score” value is -0.0402.

GTTAGCCA: the “PBM E-score” value was -0.0759.

Consider AACTACGT, for which the “PBM E-score” value worked out at 0.205.

As for ATTACAGG, the “PBM E-score” value is 0.0596.

As to ATGACAGA, the “PBM E-score” value was -0.0136.

On to GGGGCCAC, for which the “PBM E-score” value is -0.383.

In the case of GCCGGCAC, the “PBM E-score” value was -0.155.

On to GGATGCAC, for which the “PBM E-score” value was -0.148.

Take AGTTGGTC: the “PBM E-score” value was -0.123.

Regarding ATTCGAAA, the “PBM E-score” value turned out to be 0.0873.

As for CAAGGAGA, the “PBM E-score” value was -0.318.

Take AAAACGAT: the “PBM E-score” value was 0.265.

With CCGAACCG, the “PBM E-score” value worked out at 0.0623.

On to AGCGACAT, for which the “PBM E-score” value came out at 0.177.

As to ATTATACA, the “PBM E-score” value amounted to 0.0589.

Regarding ACGCTCGG, the “PBM E-score” value was 0.1.

As to AACGCCCT, the “PBM E-score” value amounted to 0.0379.

Regarding CGGAGGAG, the “PBM E-score” value is -0.182.

For the sequence CAACAGCG, the “PBM E-score” value was -0.162.

For the sequence CAAATCGC, the “PBM E-score” value is -0.195.

Regarding GAGGGACC, the “PBM E-score” value is -0.0177.

As for CTTAAGTC, the “PBM E-score” value is -0.0521.

As for CGGTATGC, the “PBM E-score” value came to 0.0857.

Turning to CACCACGA, the “PBM E-score” value is -0.0137.

On to AGACACAG, for which the “PBM E-score” value was -0.261.

As for ACGGCATG, the “PBM E-score” value was found to be 0.0199.

Consider CAGTATGA, for which the “PBM E-score” value was -0.101.

As for AAAATAAT, the “PBM E-score” value was -0.0301.

With AGTCCGGA, the “PBM E-score” value was -0.16.

Turning to AGTAGCGA, the “PBM E-score” value came out at 0.139.

The record behind these values is the supplement of paper PMC3334620.
